Data: PMC12820563, “FoxP3 forms a head-to-head dimer in vivo and stabilizes its multimerization on adjacent microsatellites”
Some of the results follow.

What follows are sequences tested against T1, MBP-FoxP1dN (Mus musculus, UniProt P58462 326-579) (assay: PD-seq (MBP pull-down with sequencing); 20 mM Tris-HCl pH 7.5, 100 mM NaCl, 1.5 mM MgCl2, 0.4 uM protein, 0.1 uM dsDNA library, 30 min, room temperature, amylose pull-down; high values mean tight binding). Conditions: protein: recombinant; tags: His6-MBP; chain copies: 2; dsDNA, one strand shown.
T1 sequence: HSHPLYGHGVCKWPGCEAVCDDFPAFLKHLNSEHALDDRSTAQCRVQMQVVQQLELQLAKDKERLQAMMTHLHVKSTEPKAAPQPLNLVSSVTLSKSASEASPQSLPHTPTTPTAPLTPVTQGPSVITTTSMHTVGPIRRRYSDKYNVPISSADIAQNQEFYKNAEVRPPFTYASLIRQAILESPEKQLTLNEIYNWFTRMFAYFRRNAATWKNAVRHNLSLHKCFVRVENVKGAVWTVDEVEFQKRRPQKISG
Method in brief: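 Mouse FoxP3 or FoxP1 fragment lacking the N-terminus, His6-MBP-tagged and expressed in E. coli, was incubated at 0.4 µM with 0.1 µM Klenow-filled degenerate double-stranded DNA library for 30 min at room temperature in Tris pH 7.5 buffer with NaCl and MgCl2. Complexes captured on amylose resin were washed three times and their DNA sequenced on Illumina. Binding is reads-per-million enrichment of pull-down over input, replicates pooled.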

| Sequence | binding signal |
| --- | --- |
| GATGATTGTTCTCCCAGCTGATGAATTGTTCTGATCGAGTAAACAAATTTTCCTAATCTTTCTGTTCAAGCGCCATCTAC | 1.08 RPM ratio (pull-down/input) |
| GATGATTGTTCTCCCAGCTGATGAATTATTTGACTCGAGTAAACAAATTTTCCTAATCTTTCTGTTCAAGCGCCATCTAC | 1.07 RPM ratio (pull-down/input) |
| GATGATTGTTCTCCCAGCTGATGAATTTCAGAACTCGAGTAAACAAATTTTCCTAATCTTTCTGTTCAAGCGCCATCTAC | 0.742 RPM ratio (pull-down/input) |
| GATGATTGTTCTCCCAGCTGATGAATTCATTGTGTCGAGTAAACAAATTTTCCTAATCTTTCTGTTCAAGCGCCATCTAC | 1.03 RPM ratio (pull-down/input) |
| GATGATTGTTCTCCCAGCTGATGAATTCTGCAGATCGAGTAAACAAATTTTCCTAATCTTTCTGTTCAAGCGCCATCTAC | 0.823 RPM ratio (pull-down/input) |
| GATGATTGTTCTCCCAGCTGATGAATTCCTGATATCGAGTAAACAAATTTTCCTAATCTTTCTGTTCAAGCGCCATCTAC | 0.972 RPM ratio (pull-down/input) |
| GATGATTGTTCTCCCAGCTGATGAATTTAAACCGTCGAGTAAACAAATTTTCCTAATCTTTCTGTTCAAGCGCCATCTAC | 0.891 RPM ratio (pull-down/input) |
| GATGATTGTTCTCCCAGCTGATGAATTCTATCTTTCGAGTAAACAAATTTTCCTAATCTTTCTGTTCAAGCGCCATCTAC | 0.914 RPM ratio (pull-down/input) |
| GATGATTGTTCTCCCAGCTGATGAATTAGGTACCTCGAGTAAACAAATTTTCCTAATCTTTCTGTTCAAGCGCCATCTAC | 0.844 RPM ratio (pull-down/input) |
| GATGATTGTTCTCCCAGCTGATGAATTAGCATGATCGAGTAAACAAATTTTCCTAATCTTTCTGTTCAAGCGCCATCTAC | 0.948 RPM ratio (pull-down/input) |
| GATGATTGTTCTCCCAGCTGATGAATTGTCCCATTCGAGTAAACAAATTTTCCTAATCTTTCTGTTCAAGCGCCATCTAC | 1.04 RPM ratio (pull-down/input) |
| GATGATTGTTCTCCCAGCTGATGAATTCTGCAGTTCGAGTAAACAAATTTTCCTAATCTTTCTGTTCAAGCGCCATCTAC | 0.862 RPM ratio (pull-down/input) |
| GATGATTGTTCTCCCAGCTGATGAATTGCTAGGATCGAGTAAACAAATTTTCCTAATCTTTCTGTTCAAGCGCCATCTAC | 0.971 RPM ratio (pull-down/input) |
| GATGATTGTTCTCCCAGCTGATGAATTATGAAGTTCGAGTAAACAAATTTTCCTAATCTTTCTGTTCAAGCGCCATCTAC | 0.883 RPM ratio (pull-down/input) |
| GATGATTGTTCTCCCAGCTGATGAATTCCGAAAATCGAGTAAACAAATTTTCCTAATCTTTCTGTTCAAGCGCCATCTAC | 0.935 RPM ratio (pull-down/input) |
| GATGATTGTTCTCCCAGCTGATGAATTGTGCGCTTCGAGTAAACAAATTTTCCTAATCTTTCTGTTCAAGCGCCATCTAC | 1.09 RPM ratio (pull-down/input) |
| GATGATTGTTCTCCCAGCTGATGAATTCTAAGTTTCGAGTAAACAAATTTTCCTAATCTTTCTGTTCAAGCGCCATCTAC | 0.972 RPM ratio (pull-down/input) |
| GATGATTGTTCTCCCAGCTGATGAATTCGCCCTATCGAGTAAACAAATTTTCCTAATCTTTCTGTTCAAGCGCCATCTAC | 0.807 RPM ratio (pull-down/input) |
| GATGATTGTTCTCCCAGCTGATGAATTAAGTGAGTCGAGTAAACAAATTTTCCTAATCTTTCTGTTCAAGCGCCATCTAC | 0.919 RPM ratio (pull-down/input) |
| GATGATTGTTCTCCCAGCTGATGAATTAAATCATTCGAGTAAACAAATTTTCCTAATCTTTCTGTTCAAGCGCCATCTAC | 1.06 RPM ratio (pull-down/input) |
| GATGATTGTTCTCCCAGCTGATGAATTCTTTTGCTCGAGTAAACAAATTTTCCTAATCTTTCTGTTCAAGCGCCATCTAC | 0.898 RPM ratio (pull-down/input) |

| Sequence | binding signal |
| --- | --- |
| GATGATTGTTCTCCCAGCTGATGAATTTCGGTCCTCGAGTAAACAAATTTTCCTAATCTTTCTGTTCAAGCGCCATCTAC | 0.819 RPM ratio (pull-down/input) |
| GATGATTGTTCTCCCAGCTGATGAATTACATCGATCGAGTAAACAAATTTTCCTAATCTTTCTGTTCAAGCGCCATCTAC | 1.22 RPM ratio (pull-down/input) |
| GATGATTGTTCTCCCAGCTGATGAATTACAAACGTCGAGTAAACAAATTTTCCTAATCTTTCTGTTCAAGCGCCATCTAC | 1.32 RPM ratio (pull-down/input) |
| GATGATTGTTCTCCCAGCTGATGAATTTTCTAGGTCGAGTAAACAAATTTTCCTAATCTTTCTGTTCAAGCGCCATCTAC | 0.869 RPM ratio (pull-down/input) |
| GATGATTGTTCTCCCAGCTGATGAATTCGTTTACTCGAGTAAACAAATTTTCCTAATCTTTCTGTTCAAGCGCCATCTAC | 1.15 RPM ratio (pull-down/input) |
| GATGATTGTTCTCCCAGCTGATGAATTGCGGGCGTCGAGTAAACAAATTTTCCTAATCTTTCTGTTCAAGCGCCATCTAC | 0.988 RPM ratio (pull-down/input) |
| GATGATTGTTCTCCCAGCTGATGAATTAGTACTATCGAGTAAACAAATTTTCCTAATCTTTCTGTTCAAGCGCCATCTAC | 1.09 RPM ratio (pull-down/input) |
| GATGATTGTTCTCCCAGCTGATGAATTCGCCCTCTCGAGTAAACAAATTTTCCTAATCTTTCTGTTCAAGCGCCATCTAC | 0.785 RPM ratio (pull-down/input) |
| GATGATTGTTCTCCCAGCTGATGAATTACGTACATCGAGTAAACAAATTTTCCTAATCTTTCTGTTCAAGCGCCATCTAC | 1.16 RPM ratio (pull-down/input) |
| GATGATTGTTCTCCCAGCTGATGAATTAGGTCACTCGAGTAAACAAATTTTCCTAATCTTTCTGTTCAAGCGCCATCTAC | 0.885 RPM ratio (pull-down/input) |
| GATGATTGTTCTCCCAGCTGATGAATTGGATCCCTCGAGTAAACAAATTTTCCTAATCTTTCTGTTCAAGCGCCATCTAC | 0.788 RPM ratio (pull-down/input) |
| GATGATTGTTCTCCCAGCTGATGAATTTGCTCCATCGAGTAAACAAATTTTCCTAATCTTTCTGTTCAAGCGCCATCTAC | 1.03 RPM ratio (pull-down/input) |
| GATGATTGTTCTCCCAGCTGATGAATTAACTGTGTCGAGTAAACAAATTTTCCTAATCTTTCTGTTCAAGCGCCATCTAC | 0.92 RPM ratio (pull-down/input) |
| GATGATTGTTCTCCCAGCTGATGAATTCTCATTTTCGAGTAAACAAATTTTCCTAATCTTTCTGTTCAAGCGCCATCTAC | 1.04 RPM ratio (pull-down/input) |
| GATGATTGTTCTCCCAGCTGATGAATTAAGGTACTCGAGTAAACAAATTTTCCTAATCTTTCTGTTCAAGCGCCATCTAC | 0.977 RPM ratio (pull-down/input) |
| GATGATTGTTCTCCCAGCTGATGAATTCGGAGTTTCGAGTAAACAAATTTTCCTAATCTTTCTGTTCAAGCGCCATCTAC | 0.867 RPM ratio (pull-down/input) |
| GATGATTGTTCTCCCAGCTGATGAATTCCGTTATTCGAGTAAACAAATTTTCCTAATCTTTCTGTTCAAGCGCCATCTAC | 1.07 RPM ratio (pull-down/input) |
| GATGATTGTTCTCCCAGCTGATGAATTTGTCTGTTCGAGTAAACAAATTTTCCTAATCTTTCTGTTCAAGCGCCATCTAC | 1.01 RPM ratio (pull-down/input) |
| GATGATTGTTCTCCCAGCTGATGAATTTTAAGGATCGAGTAAACAAATTTTCCTAATCTTTCTGTTCAAGCGCCATCTAC | 0.976 RPM ratio (pull-down/input) |
| GATGATTGTTCTCCCAGCTGATGAATTACATTTTTCGAGTAAACAAATTTTCCTAATCTTTCTGTTCAAGCGCCATCTAC | 1.37 RPM ratio (pull-down/input) |
| GATGATTGTTCTCCCAGCTGATGAATTCCTCGTATCGAGTAAACAAATTTTCCTAATCTTTCTGTTCAAGCGCCATCTAC | 0.859 RPM ratio (pull-down/input) |

| Sequence | binding signal |
| --- | --- |
| GATGATTGTTCTCCCAGCTGATGAATTCCGGGCATCGAGTAAACAAATTTTCCTAATCTTTCTGTTCAAGCGCCATCTAC | 0.862 RPM ratio (pull-down/input) |
| GATGATTGTTCTCCCAGCTGATGAATTTAGAAATTCGAGTAAACAAATTTTCCTAATCTTTCTGTTCAAGCGCCATCTAC | 0.989 RPM ratio (pull-down/input) |
| GATGATTGTTCTCCCAGCTGATGAATTCTACGATTCGAGTAAACAAATTTTCCTAATCTTTCTGTTCAAGCGCCATCTAC | 0.847 RPM ratio (pull-down/input) |
| GATGATTGTTCTCCCAGCTGATGAATTAAAGACATCGAGTAAACAAATTTTCCTAATCTTTCTGTTCAAGCGCCATCTAC | 1.02 RPM ratio (pull-down/input) |
| GATGATTGTTCTCCCAGCTGATGAATTCCCCCAGTCGAGTAAACAAATTTTCCTAATCTTTCTGTTCAAGCGCCATCTAC | 0.776 RPM ratio (pull-down/input) |
| GATGATTGTTCTCCCAGCTGATGAATTGTCCTGTTCGAGTAAACAAATTTTCCTAATCTTTCTGTTCAAGCGCCATCTAC | 1.04 RPM ratio (pull-down/input) |
| GATGATTGTTCTCCCAGCTGATGAATTAACGATATCGAGTAAACAAATTTTCCTAATCTTTCTGTTCAAGCGCCATCTAC | 1.03 RPM ratio (pull-down/input) |
| GATGATTGTTCTCCCAGCTGATGAATTTCGGCAGTCGAGTAAACAAATTTTCCTAATCTTTCTGTTCAAGCGCCATCTAC | 0.847 RPM ratio (pull-down/input) |
| GATGATTGTTCTCCCAGCTGATGAATTGTACTCCTCGAGTAAACAAATTTTCCTAATCTTTCTGTTCAAGCGCCATCTAC | 0.949 RPM ratio (pull-down/input) |
| GATGATTGTTCTCCCAGCTGATGAATTTGTCATATCGAGTAAACAAATTTTCCTAATCTTTCTGTTCAAGCGCCATCTAC | 1.24 RPM ratio (pull-down/input) |
| GATGATTGTTCTCCCAGCTGATGAATTATCTATGTCGAGTAAACAAATTTTCCTAATCTTTCTGTTCAAGCGCCATCTAC | 0.972 RPM ratio (pull-down/input) |
| GATGATTGTTCTCCCAGCTGATGAATTGAGCGTGTCGAGTAAACAAATTTTCCTAATCTTTCTGTTCAAGCGCCATCTAC | 0.844 RPM ratio (pull-down/input) |
| GATGATTGTTCTCCCAGCTGATGAATTCCATAGGTCGAGTAAACAAATTTTCCTAATCTTTCTGTTCAAGCGCCATCTAC | 0.774 RPM ratio (pull-down/input) |
| GATGATTGTTCTCCCAGCTGATGAATTGTGTAGCTCGAGTAAACAAATTTTCCTAATCTTTCTGTTCAAGCGCCATCTAC | 1.07 RPM ratio (pull-down/input) |
| GATGATTGTTCTCCCAGCTGATGAATTGGTACCTTCGAGTAAACAAATTTTCCTAATCTTTCTGTTCAAGCGCCATCTAC | 0.97 RPM ratio (pull-down/input) |
| GATGATTGTTCTCCCAGCTGATGAATTGATTAAATCGAGTAAACAAATTTTCCTAATCTTTCTGTTCAAGCGCCATCTAC | 1.23 RPM ratio (pull-down/input) |
| GATGATTGTTCTCCCAGCTGATGAATTTTGTCAATCGAGTAAACAAATTTTCCTAATCTTTCTGTTCAAGCGCCATCTAC | 1.33 RPM ratio (pull-down/input) |
| GATGATTGTTCTCCCAGCTGATGAATTCCTAGATTCGAGTAAACAAATTTTCCTAATCTTTCTGTTCAAGCGCCATCTAC | 0.819 RPM ratio (pull-down/input) |
| GATGATTGTTCTCCCAGCTGATGAATTAACGCGTTCGAGTAAACAAATTTTCCTAATCTTTCTGTTCAAGCGCCATCTAC | 1.06 RPM ratio (pull-down/input) |
| GATGATTGTTCTCCCAGCTGATGAATTAACAATGTCGAGTAAACAAATTTTCCTAATCTTTCTGTTCAAGCGCCATCTAC | 1.17 RPM ratio (pull-down/input) |
| GATGATTGTTCTCCCAGCTGATGAATTCTTACCTTCGAGTAAACAAATTTTCCTAATCTTTCTGTTCAAGCGCCATCTAC | 0.928 RPM ratio (pull-down/input) |
